# The source gives no read counts; variants with many changes may rest on few reads.
# B1: LINE1-mini (parent)
# chain: GGCAGAGCUCAACACAGCGUGGCAAAGUGGCUGUGGCUAGACUGCC
# Variants of: B1
# Assay: self-cleavage, relative activity (ratio to wild type); higher = more cleavage; in vitro, sequencing; the parent is a self-cleaving ribozyme
row,Variant,self-cleavage
1,A16G U34G C45G,0.02
2,G2A U32C U38A,0.09
3,U28C U32C C45A,0.01
4,C10A C13U A16U G36C C46U,0.05
5,A24U G33A A39U G40U,0.06
6,A4G U9C C23U,0.05
7,U9G G21U U38A,0.15
8,A24G U32G C37A U43A,0.02
9,A4C U43A G44U,0.1
10,A11G C37U C46A,0
11,A11U C15U G40A,0.02
12,G5C C31A C42G,0.06
13,A4G A12U C13A,0.14
14,U9G U32G C42G,0.01
15,G36U C37U C42G,0.02
16,C3A A6U U20A G22C,0.31
17,A26G G44A C46G,0.04
18,G7U A24U G35C U38A G40C,0.07
19,A6C A14U G19U A24G G33U G36C,0.02
20,A6C A26G U28G,0.08
21,G17A A26U C31G C42A,0.04
22,G5U A12G C15G A16U G22C,0.05
23,G5U G30U G36C,0.17
24,G21C A26C A39U C46U,0.21

row,Variant,self-cleavage
1,G2A A6G U34A,0.05
2,A12U U20A U28A C42G,0
3,G17C U20C G33A,0.02
4,G2C G22A G33U A41C,0.01
5,A24G C31G C42A,0.06
6,A6C C10A G19A C45G,0.01
7,C31A U34C C45G,0
8,G7A C10A U28A C45U,0.01
9,C10U G27U A41G,0.02
10,G1U G35A U43G,0.01
11,G7U C10A C13U,0.01
12,G1C C3G G30U C31A,0.29
13,G7C A16U G35A,0.11
14,A16C G33C G35A,0
15,G22A A26G U28G G36A A39U,0.27
16,C3G A14C G17C G21U C31A,0.03
17,A11U G21U U32A C37U C45A,0.01
18,C15G C23G G30A,0.02
19,C15A C23A A26C U38A A39U,0.93
20,G21C A26C U28A U34G,0.64
21,A4G G5C A25G,0.04
22,G5C C8A A16G C18U C23U U32C G33A,0.04
23,G1U C18U G30U,0.24
24,G1C G19A G21U G27A,0.1

row,Variant,self-cleavage
1,A12U G27C G29U C37U G40A U43A,0.02
2,G29A A39U G40U,0.12
3,A4C A12C G19U U38A C42A,0
4,A14C U38G U43C,0
5,A16C G22A A25C G33C A41C U43A,0.01
6,C10U G21U A26U G27A C37A,0.01
7,G2U G19U U20A U34A G40U,0.06
8,C18G G27C G29A,0.03
9,C8U G21U A25C G40U,0.18
10,U9G C15G U20G G22U C23U,0.04
11,C13G A16U G29A,0.05
12,G21A A25C C37U C45A,0.1
13,G5U C13A G29U A39U C42G,0.01
14,C8G A16U G21C U38G,0.01
15,G5A A6G G19A U20C G22U,0.02
16,G19U U34A U38C,0.09
17,G7A A14C G27U G29A,0.47
18,C23G G27A A39U,0.98
19,C37U A39C G40U,0.08
20,A6U C10A G17C G27C G35A,0
21,G17U C31U C37A,0
22,A14G C15U G17A A24C G35A G44C C46U,0.02
23,G5C C23U C31G,0.02
24,C8U A26C U38G U43C,0.04

row,Variant,self-cleavage
1,G5A A24G U38G C45G,0.01
2,U20A C37A C42A,0.02
3,A6G C10U G17U A26U,0.02
4,G7U C31A C45U,0.07
5,U43C C45A C46U,0.1
6,C13A C15U G22C G27U C37U,0.07
7,G2C A12C C15U C23A A24G A25C,0.02
8,U20G G30A U32A,0.05
9,G17U C18A G22A G36U,0.08
10,A11G G19U A25C,0.04
11,C3G G5A G17U C23U A26U C42G,0.15
12,C15A U20A U38A C45A,0.01
13,C3U A25G C46A,0.08
14,G2A C8G C13G,0.02
15,G5U C8A C13G G35A G36A,0.3
16,A4U C15U G44A,0.06
17,C3A U9G C10G,0.02
18,G19A G29C G30U,0.96
19,G29A G33C G44C,0.02
20,U20G U28A C37A C45U,0.01
21,G19C G22A A41C,0.04
22,C8A A12C G29A G40C,0.02
23,G1C C8A G22U A41G C45U,0.04
24,C3U C13U A14U G36A,0.03

row,Variant,self-cleavage
1,G2U A14G A24G G36C,0.01
2,G2U G21U G29C C46A,0.03
3,C15U U20C U32C G35U C42G,0.18
4,A6G G17U G35A G36U,0.34
5,C8U A16G G30A,0.14
6,C15U C18G G40C C42U,0
7,A6U G7C A12G A14C G35U A39C,0.09
8,A6G A11G A25G,0.01
9,A4C G36A U43A,0.21
10,C10A C13G A16C G44A,0.01
11,A26G G27U G29U A41C,0.04
12,A14G G29U G30A U34C C45A,0.05
13,A14G A16U G22C C46A,0.03
14,G2U G29C U32G C42G,0.03
15,C18U G19C G30A,1.05
16,C13U C23U G29U G30A A39U,0.05
17,C10G G17C A25G G30A U32G A39U,0.01
18,A14C U38C G40A,0.06
19,A11C C15U G17A G30C C45G,0.05
20,G1A G2A A25G G29A G33U A39G,0.14
21,G7A A26U C45G,0.47
22,C3U G5A A41C,0.07
23,G27A G29A C31U G33A U38A,0.02
24,G1U G21U C37A,0.02

row,Variant,self-cleavage
1,C15G G19U G35C G40A,0
2,G7C C15A G29U,0.1
3,C8A G33U C45G,0.27
4,G2U A12C A16G G19A A24G A25U,0.01
5,G1A G22U U34C,0.09
6,A26G C31U G36A,0.07
7,G1U U32A G44A,0.06
8,U9G C18G G19A G21U,0.03
9,A6C C18G G27U,1.24
10,C3U A14U C18A G21U,0.08
11,C3G G19U C23A A26U G33C,0.04
12,C18G C37G A41U,0.04
13,C8U U9G C10A C42U,0.02
14,C3U A11U A12C G17C G30C U34G,0.01
15,A6U C15A C46A,0.15
16,C8G G19U G21U A26G C46U,0.03
17,A4U A6G C45G,0.04
18,A6U G21U U38G C42U,0.04
19,C10A U20G G21U C31G,0.03
20,C23A A24G A26C,1.37
21,G2U A12G G27C A41C U43C,0.01
22,A4G A11G A12U A16C G17A U32A A41C,0.01
23,C3U A4G U20A C31A C42U,0.02
24,A24G A25C A26U C31A G40A,0.02

row,Variant,self-cleavage
1,A4C C31U G44U,0.05
2,G2C G7C C8A G36C C37U,0.13
3,G2C G7A G19C U20G G35U,0.77
4,C15U G19U G22C,1.21
5,A16C G27A A39U,0.05
6,A16G C23U U43G,0.02
7,A14C G44U C45A,0.04
8,G2A G7U G29A G30A,0.34
9,G19U G27A A41U,0.21
10,G7C C15A U20A,0.02
11,G5A A25C C31A U38A,0.05
12,G1C G2U G5C C18U U32C,0.04
13,U9G C13U U20C G21A A25G,0.09
14,C10G C13U C18A G33U G40C,0.03
15,G1A G17U C18A G21U,0.14
16,G7A A12C U38A,0.01
17,C31G A39U A41U,0.02
18,A4G G5A C10G,0.02
19,C3A C10A C45A,0.02
20,C3A U28G U32C,0.15
21,C3A C23A A24U,0.15
22,G29U C37U C46U,0.06
23,C31G G33C U38G,0.02

# Source: the RNAGym collection of RNA variant scans (doi:10.7554/elife.90254)
